Experimental data taken from the supplement of paper PMC11417369.
The list shows a part of the results.

These sequences were tested on PfHDP1 homeodomain (GST-tagged) (assay: gcPBM binding intensity (ln(normalized median fluorescence intensity)); higher = stronger DNA binding).
Outline: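 After 1 h on an Agilent 4 × 180k array of primer-extended double-stranded 36-bp intergenic genomic probes and negative controls, bound GST-tagged P. falciparum DNA-binding domains were detected with Alexa488 anti-GST antibody and scanned at 488 nm. The domains had been expressed in E. coli, and binding took place in 1× PBS with 1% milk, 0.2 mg/ml BSA, 0.5% salmon testes DNA and 0.03% Triton X-100. Binding intensity is the highest Masliner-normalised natural-log median intensity across replicate spots of either probe orientation.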

Sequence	gcPBM binding intensity (ln)
AAGGAAAATTTTTGGTGTACACAAAAAAATCCAAAA [XGTACX_site3596]	7.25
TAAACAGATATATTTTGTACATATTGTATATTTTGT [XGTACX_site713]	6.12
ACACATATGACAAATAGTACATAAATATATAAATAT [XGTACX_site7141]	6.43
TATATATCGCCCTTCACACACACACGGATATAAATA [CACACA_site7221]	7.09
ATAATAAATATATAATGTACATATTATGTTCTTTAT [XGTACX_site8655]	6.3
CGCTCTTATAAATGTTGTACATAAAACTGTTCATTA [XGTACX_site3409]	6.49
TTTTGTAGATATTGAAGTACAAAAAAAATGTAAAAG [XGTACX_site5905]	6.83
ATCGGTAATATTAACACACACATTTATATATATTTA [CACACA_site1084]	6.83
TCACTACATTTTGGACGTACACAACTTGATATATTG [XGTACX_site4775]	6.87
TTTTTTTTTTTTTTTTGTACATATAAAAATACGTAA [XGTACX_site6003]	6.59
CACACGCACAGACACACACACACACGGATATAAATA [CACACA_site6301]	7.76
AAATCTTAACTCTATGCACACATAAAAGTATATAAA [CACACA_site8709]	9.66
ATGATATACTTGAGTGTGCACAAACTATTACTTACA	11
ATATATATATATATATGTACATATTTGATTTTTCTT [XGTACX_site8171]	9.3
ACAACATATGTTATCACACACATATAAATATAAATA [CACACA_site7038]	6.5
ATTTTGATGATGTATGCACACATTGAAAATGAGAAA [CACACA_site2916]	8.96
CTCTACGAATTCATAGTGCAAAGAGCTAATTTTTTC [GTGCAC_site9710]	7.29
TCTTTTATGATATTTACACACAAACGTGAGATAGCT [CACACA_site2312]	6.63
AACATTATGTTTATTTGTACATATAAATATATGTAA [XGTACX_site7389]	6.3
GATCATTCAGTTTTATCACACACAATCAAACATATA [CACACA_site8882]	6.79
ATATTTTGATAATATTGTACAAAAACATTAAAATGT [XGTACX_site8361]	6.29
CATAATGTAAATAAGTGTACACATATATAATACATA [XGTACX_site3108]	6.87
TTTTTTAATATATTATTATAAATATTTTTTATGTGT [GTGCAC_negctrl_site712]	6.46
ATGCGTTAATCTATATATATTATGTATAGATTTTCA [CACACA_negctrl_site1650]	6.23
AACATATTTATGATGTGTACCTACATAATAGAATTT [XGTACX_site141]	5.96
